Test results published in the supplement of paper PMC12217912.
Some of the results follow. Sequences were assembled here from the parent chain. Values near 0.05 are background.

B1: TEV protease; numbered along this chain (parent)
chain: MGESLFKGPRDYNPISSSICHLTNESDGHTTSLYGIGFGPFIITNKHLFRRNNGTLVVQSLHGVFKVKDTTTLQQHLVDGRDMIIIRMPKDFPPFPQKLKFREPQREERICLVTTNFQTKSMSSMVSDTSCTFPSGDGIFWKHWIQTKDGQCGSPLVSTRDGFIVGIHSASNFTNTNNYFTSVPKNFMELLTNQEAQQWVSGWRLNADSVLWGGHKVFMVKPEEPFQPVKEATQL

Variants of: B1
Test: raw area under fraction-flipped curve 0-4 h after induction (AUC4h, not background-subtracted), DNA-recorder readout of cleavage of the substrate (dimensionless); higher = more cleavage of the substrate by the protease variant
Settings: temperature: 34 °C; time window: 0-4 h after rhamnose induction
Protocol: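 In vivo DNA recorder in E. coli TOP10(DE3) ΔrhaA at 34 °C. Each TEVp single-site mutant (parent TEVp 0) is paired with a single-site variant of the 7-mer TEVs (canonical ENLYFQ|S). The substrate sits between flexible linkers in a Bxb1-sfGFP-TEVs-SsrA fusion, so cleavage stabilises Bxb1 and speeds flipping of a recombination array, read by NGS. The value is the raw area under the fraction-flipped curve over 0-4 h after rhamnose induction (AUC4h), with ≥20 reads per time point. It is not background-subtracted; inactive controls average about 0.047.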
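Also: Bxb1 expression induced with 0.2% (w/v) L-rhamnose at OD600 near 0.5, cultures sampled hourly, flipped fraction per protease–substrate barcode pair counted by paired-end Illumina sequencing.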

Variant: G2R
- area with substrate CNLYFQS: 0.0703
- area with substrate HNLYFQS: 0.0684
- area with substrate KNLYFQS: 0.0686
- area with substrate LNLYFQS: 0.0642
- area with substrate MNLYFQS: 0.0739
- area with substrate NNLYFQS: 0.0606

Variant: G2C
- area with substrate CNLYFQS: 0.0802
- area with substrate HNLYFQS: 0.0752
- area with substrate PNLYFQS: 0.0776
- area with substrate TNLYFQS: 0.0696
- area with substrate YNLYFQS: 0.0799

Variant: I42K
- area with substrate CNLYFQS: 0.0328
- area with substrate HNLYFQS: 0.048
- area with substrate KNLYFQS: 0.0543
- area with substrate LNLYFQS: 0.0434
- area with substrate MNLYFQS: 0.0337
- area with substrate NNLYFQS: 0.0559
- area with substrate PNLYFQS: 0.0441
- area with substrate SNLYFQS: 0.0449
- area with substrate TNLYFQS: 0.0514
- area with substrate VNLYFQS: 0.0565
- area with substrate WNLYFQS: 0.0475
- area with substrate YNLYFQS: 0.0318

Variant: L5N
- area with substrate CNLYFQS: 0.0685
- area with substrate GNLYFQS: 0.0904
- area with substrate HNLYFQS: 0.0562
- area with substrate INLYFQS: 0.0558
- area with substrate LNLYFQS: 0.0779
- area with substrate MNLYFQS: 0.0792
- area with substrate NNLYFQS: 0.0698
- area with substrate TNLYFQS: 0.0691
- area with substrate WNLYFQS: 0.0435

Variant: L5C
- area with substrate CNLYFQS: 0.0821
- area with substrate INLYFQS: 0.072
- area with substrate LNLYFQS: 0.0683
- area with substrate PNLYFQS: 0.072
- area with substrate QNLYFQS: 0.0561
- area with substrate SNLYFQS: 0.076
- area with substrate YNLYFQS: 0.0483

Variant: L5K
- area with substrate CNLYFQS: 0.0586
- area with substrate HNLYFQS: 0.0689
- area with substrate KNLYFQS: 0.0697
- area with substrate MNLYFQS: 0.0513
- area with substrate PNLYFQS: 0.068
- area with substrate TNLYFQS: 0.0661
- area with substrate WNLYFQS: 0.0467

Variant: L5V
- area with substrate CNLYFQS: 0.08
- area with substrate GNLYFQS: 0.0811
- area with substrate HNLYFQS: 0.0634
- area with substrate PNLYFQS: 0.0765
- area with substrate TNLYFQS: 0.067
- area with substrate WNLYFQS: 0.0599
- area with substrate YNLYFQS: 0.0462

Variant: L5W
- area with substrate CNLYFQS: 0.0717
- area with substrate GNLYFQS: 0.104
- area with substrate HNLYFQS: 0.0639
- area with substrate INLYFQS: 0.0505
- area with substrate MNLYFQS: 0.0712
- area with substrate PNLYFQS: 0.0637
- area with substrate SNLYFQS: 0.067
- area with substrate WNLYFQS: 0.0674
- area with substrate YNLYFQS: 0.0659

Variant: L5A
- area with substrate CNLYFQS: 0.0687
- area with substrate FNLYFQS: 0.0678
- area with substrate GNLYFQS: 0.0624
- area with substrate HNLYFQS: 0.0753
- area with substrate KNLYFQS: 0.0677
- area with substrate PNLYFQS: 0.0811
- area with substrate WNLYFQS: 0.0704

Variant: S26Y
- area with substrate CNLYFQS: 0.0751
- area with substrate HNLYFQS: 0.0487
- area with substrate INLYFQS: 0.0599
- area with substrate KNLYFQS: 0.0651
- area with substrate MNLYFQS: 0.0623
- area with substrate PNLYFQS: 0.0466
- area with substrate RNLYFQS: 0.0689
- area with substrate SNLYFQS: 0.0833
- area with substrate TNLYFQS: 0.07
- area with substrate YNLYFQS: 0.0792

Variant: L22Q
- area with substrate CNLYFQS: 0.0485
- area with substrate FNLYFQS: 0.0507
- area with substrate HNLYFQS: 0.03
- area with substrate INLYFQS: 0.0461
- area with substrate KNLYFQS: 0.0408
- area with substrate NNLYFQS: 0.0437
- area with substrate PNLYFQS: 0.0436
- area with substrate TNLYFQS: 0.0488
- area with substrate VNLYFQS: 0.0795
- area with substrate WNLYFQS: 0.0544
- area with substrate YNLYFQS: 0.0471

Variant: E3T
- area with substrate CNLYFQS: 0.119
- area with substrate LNLYFQS: 0.0559
- area with substrate SNLYFQS: 0.059
- area with substrate TNLYFQS: 0.0713

Variant: E3L
- area with substrate CNLYFQS: 0.0315
- area with substrate HNLYFQS: 0.0622
- area with substrate INLYFQS: 0.0612
- area with substrate LNLYFQS: 0.0426
- area with substrate MNLYFQS: 0.0632
- area with substrate NNLYFQS: 0.0572
- area with substrate PNLYFQS: 0.0714
- area with substrate SNLYFQS: 0.0548
- area with substrate TNLYFQS: 0.0686
- area with substrate YNLYFQS: 0.0642

Variant: R10F
- area with substrate CNLYFQS: 0.0536
- area with substrate FNLYFQS: 0.0725
- area with substrate GNLYFQS: 0.0728
- area with substrate HNLYFQS: 0.0675
- area with substrate KNLYFQS: 0.0653
- area with substrate LNLYFQS: 0.0821
- area with substrate MNLYFQS: 0.077
- area with substrate PNLYFQS: 0.066
- area with substrate TNLYFQS: 0.0609
- area with substrate VNLYFQS: 0.0586
- area with substrate WNLYFQS: 0.0628
- area with substrate YNLYFQS: 0.0794

Variant: R10T
- area with substrate CNLYFQS: 0.0529
- area with substrate FNLYFQS: 0.0511
- area with substrate HNLYFQS: 0.0611
- area with substrate KNLYFQS: 0.0665
- area with substrate PNLYFQS: 0.0642
- area with substrate QNLYFQS: 0.0379
- area with substrate SNLYFQS: 0.0661
- area with substrate TNLYFQS: 0.0643
- area with substrate WNLYFQS: 0.0635
- area with substrate YNLYFQS: 0.0631

Variant: R10Y
- area with substrate CNLYFQS: 0.0511
- area with substrate GNLYFQS: 0.0584
- area with substrate HNLYFQS: 0.0698
- area with substrate INLYFQS: 0.061
- area with substrate KNLYFQS: 0.0446
- area with substrate LNLYFQS: 0.0638
- area with substrate MNLYFQS: 0.0565
- area with substrate SNLYFQS: 0.0572
- area with substrate TNLYFQS: 0.0613
- area with substrate VNLYFQS: 0.062
- area with substrate WNLYFQS: 0.0619

Variant: E25M
- area with substrate CNLYFQS: 0.0673
- area with substrate GNLYFQS: 0.0632
- area with substrate HNLYFQS: 0.0733
- area with substrate INLYFQS: 0.0749
- area with substrate KNLYFQS: 0.074
- area with substrate LNLYFQS: 0.064
- area with substrate PNLYFQS: 0.0705
- area with substrate RNLYFQS: 0.0648
- area with substrate TNLYFQS: 0.0692
- area with substrate VNLYFQS: 0.093
- area with substrate WNLYFQS: 0.0636
- area with substrate YNLYFQS: 0.0703

Variant: E25H
- area with substrate CNLYFQS: 0.0719
- area with substrate FNLYFQS: 0.0444
- area with substrate GNLYFQS: 0.0399
- area with substrate HNLYFQS: 0.0708
- area with substrate INLYFQS: 0.0715
- area with substrate LNLYFQS: 0.0646
- area with substrate MNLYFQS: 0.0538
- area with substrate PNLYFQS: 0.0562
- area with substrate SNLYFQS: 0.0643
- area with substrate TNLYFQS: 0.0621
- area with substrate WNLYFQS: 0.056
- area with substrate YNLYFQS: 0.0638

Variant: E25F
- area with substrate CNLYFQS: 0.0711
- area with substrate GNLYFQS: 0.061
- area with substrate HNLYFQS: 0.0696
- area with substrate LNLYFQS: 0.0599
- area with substrate NNLYFQS: 0.057
- area with substrate VNLYFQS: 0.0739
- area with substrate WNLYFQS: 0.0529
- area with substrate YNLYFQS: 0.0617
